Measured values published in PubChem BioAssay AID686970 (National Center for Advancing Translational Sciences (NCATS), 2013).
“And” between values parts separate entries of the source, which are not always exact repeats. Identical values can stand only once. Hit rate of the full screen: of about 360,000 compounds, about 6,000 (1.7%) were called active. This list was built around the results that the source calls inconclusive (neither active nor inactive); the mix of calls is not that of the screen. Calls follow the shape of the dose curve; as a rule, active = well fitted cell-killing curve with a large enough effect; inconclusive = small, poorly fitted or top-dose-only effect, or effect the other way; inactive = flat fitted curve, though single readings scatter. A potency beside an inconclusive call is a rough fit, not a confirmed value.

Test: qHTS for induction of synthetic lethality in tumor cells producing 2HG: qHTS for the HT-1080-NT fibrosarcoma cell line;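 also: NT is the 2HG producing partner of a matched IDH1 knockdown line; nearly all actives have a fitted effect of over 55% in size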;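 as to activity, negative = less viability: 0% = DMSO-treated cells and -100% = media-only wells without cells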
Details: HT-1080-NT fibrosarcoma viability, CellTiter-Glo ATP luminescence, 48 h; activity, negative = less viability: at 46.1 µM (top of the series) unless noted
Method in brief: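 HT-1080-NT; 750 cells/well; 5% FBS RPMI; 48 h compound, 37 degrees C; CellTiter-Glo luminescence; curve fitting and curve-class assignment.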
Potency is read from the fitted curve at half-maximal effect; tags tell the direction and shape of the fitted curve.

Structure (SMILES)	Potency	activity, negative = less viability
CCOc1cc(/C=C2\C(=O)N(Cc3ccc(C)cc3)C(C)=C2C(=O)OC)ccc1O	inconclusive: 20.6 µM [cytotoxic, single point]	
CC(O)(c1ccccc1)c1nc(/C=C/c2ccccc2)cs1 (stereo not drawn)	inconclusive: 29.1 µM [cytotoxic, single point]	
COc1cccc(-c2nc(NC3CCCC3)c3ccccc3n2)c1O	inconclusive: 18.4 µM [cytotoxic, single point]	
COc1cc(CNC[C@H]2O[C@@H](n3cc(C)c(=O)[nH]c3=O)C[C@@H]2O)ccc1OCc1cccc(Cl)c1		inactive: -14.5%
COC(=O)c1ccc2nc(NC(=O)C(C)(C)C)sc2c1	active: 18.4 µM	
COc1ccc(-c2coc3c(C(=O)NC4CCCCC4)cccc23)c(C)c1	inconclusive: 32.6 µM [cytotoxic, single point]	
COc1cccc(-c2nn(C)c3sc(C(=O)N4CCN(c5ccccn5)CC4)cc23)c1	inconclusive: 9.2 µM [cytotoxic, partial curve]	
O=C(Nc1nncs1)C1c2ccccc2Oc2ccccc21	inconclusive: 22.4 µM [cytotoxic, single point]	
CSCCOC(=O)c1[nH]c2c(c1C)C(=O)CC(c1ccco1)C2 (stereo not drawn)	inconclusive: 2.06 µM [cytotoxic, full curve]	
N=c1c2c(ncn1CCCO)Oc1c(ccc3ccccc13)C2c1ccccc1 (stereo not drawn)	inconclusive: 18.4 µM [cytotoxic, single point]	
C=CC(=O)Nc1ccc(CN2C(=O)N(c3c(Cl)c(OC)cc(OC)c3Cl)Cc3cnc(NCCCCN(CC)CC)nc32)cc1	active: 23.1 µM	
N#Cc1ccc(CSc2nnc(NC(=O)c3ccc(=O)[nH]c3)s2)cc1		inconclusive: -0.611% [cytotoxic]
C/C(=N\NC(=O)CN(c1ccc(Oc2ccccc2)cc1)S(C)(=O)=O)C(C)(C)C		inactive: 3%
Cc1ccc(NC(=O)/C=C/c2ccc(Cl)cc2)nc1		inactive: -1.52%
CN(C)CC/C=C1/c2cc(F)ccc2CSc2ccc(F)cc21		inactive: -10.4%
O=C(N/N=C\c1ccc(-c2cccc(Cl)c2)o1)C(=O)NC1CCCC1	inconclusive: 16.4 µM [rising, partial curve]	
CCC1(CC)Cc2ccccc2-c2nc(CN(C)C)[nH]c(=O)c21	inconclusive: 29.1 µM [cytotoxic, single point]	
CCCCOc1cc(C(=O)NCCN(CC)CC)c2ccccc2n1	inconclusive: 29.1 µM [cytotoxic, single point] and inconclusive: 20.6 µM [cytotoxic, single point]	
OCc1ccccc1SSc1ccccc1CO	inconclusive: 16.4 µM [cytotoxic, single point]	
O=S(=O)(c1ccccc1)N(CC1CO1)c1cccc2ccccc12 (stereo not drawn)		inactive: -18.3%
Cc1c(CCC(=O)NCCCn2ccnc2)c(=O)oc2cc3oc4c(c3cc12)CCCC4	inconclusive: 29.1 µM [cytotoxic, single point]	
O=C(CCNC(=O)c1ccccc1)NNC(=O)COc1ccccc1Cl		inactive: -2.64%
O=C(CN1C(=O)C2C3C=CC(C4CC34)C2C1=O)Nc1cccc2ncccc12 (stereo not drawn)		inactive: 14.1%
CCOC1CCCc2oc(-c3ccc(N(C)C)cc3)c(C(=O)OC)c21 (stereo not drawn)	inconclusive: 29.1 µM [cytotoxic, single point]	
CCNc1c(NS(=O)(=O)c2ccc([N+](=O)[O-])cc2)c(=O)oc2ccccc12		inactive: 0.494%

Structure (SMILES)	Potency	activity, negative = less viability
COc1cccc(CC2(CO)CCCN(Cc3cc4ccccc4[nH]3)C2)c1 (stereo not drawn)	inconclusive: 20.6 µM [cytotoxic, partial curve]	
O=C(N/N=C\c1cccc([N+](=O)[O-])c1O)C1COc2ccccc2O1 (stereo not drawn)	inconclusive: 23.1 µM [cytotoxic, single point]	
Cc1ccc(C(C)C)c(OCC(O)CN2CCc3ccccc3C2)c1 (stereo not drawn)	inconclusive: 23.1 µM [cytotoxic, single point]	
OC(CNCCC(c1ccccc1)c1ccccc1)COc1ccccc1 (stereo not drawn)	inconclusive: 29.1 µM [cytotoxic, single point]	
Cc1cccc(COc2ncnc3nc[nH]c23)c1		inactive: -14.5%
COc1cc(C2C(C#N)=C(N)Oc3cc(N)ccc32)cc(OC)c1OC (stereo not drawn)	inconclusive: 1.16 µM [cytotoxic, full curve]	
N=c1c2c(-c3ccccc3)c(-c3ccccc3)n(Cc3ccco3)c2ncn1CCO	active: 18.4 µM	
O=[N+]([O-])c1cccc(/C=N/Nc2cc(Cl)nc(-c3ccccc3)n2)c1		inactive: 6.11%
CN1C2CCC1/C(=C\c1ccccc1F)C(=O)/C2=C/c1ccccc1F	inconclusive: 18.4 µM [cytotoxic, single point]	
O=C(CCNS(=O)(=O)c1ccccc1)N1CCCCCC1	inconclusive: 18.4 µM [rising, single point]	
COCCNC(=S)N(CCc1c(C)[nH]c2ccc(Cl)cc12)Cc1cccs1	active: 20.6 µM	
CC1(Cc2ccc(Cl)c(Cl)c2)C(=O)Nc2ccc(S(=O)(=O)NC3CCCCC3)cc21 (stereo not drawn)	inconclusive: 29.1 µM [cytotoxic, single point]	
Cc1ccc(-c2nn(-c3ccccc3)cc2NC(=O)CCl)cc1	active: 5.17 µM	
COc1ccc(C(=O)Nc2cccc(-c3nc4ncccc4o3)c2C)cc1OC	inconclusive: 29.1 µM [cytotoxic, single point]	
COc1ccc(CN(C)C[C@H]2OCCCC[C@@H](C)Oc3ccc(NS(C)(=O)=O)cc3C(=O)N([C@H](C)CO)C[C@@H]2C)cc1		inactive: 6.74%
Clc1ccccc1Nc1nnc(-c2ccncc2)s1	active: 7.31 µM	
Cc1cc([N+](=O)[O-])nn1CC(=O)NC1CCCCC1		inactive: 3.58%
COCC1CCN(Cc2nc(-c3ccc4c(c3)OCO4)no2)C1 (stereo not drawn)		inactive: 7.63%
COc1ccc(NC(=O)c2csc(C)c2)cc1OC		inactive: 5.98%
C(=C\c1ccc2ccccc2n1)/c1ccccc1	inconclusive: 18.4 µM [cytotoxic, single point]	
COc1cccc(/C=N/NC(=O)c2ccc(N3CCCC3=O)cc2)c1	inconclusive: 18.4 µM [cytotoxic, single point]	
COc1ccc(CN(CC2CCCO2)C(=O)c2cc3sccc3n2C)c(OC)c1 (stereo not drawn)		inactive: -25.9%
Cc1ncc(CO)c(/C=N/NC(=O)c2cc3c(s2)CCCC3)c1O	inconclusive: 2.31 µM [cytotoxic, full curve]	
CC(CNS(=O)(=O)c1ccccc1)Sc1ncccn1 (stereo not drawn)		inactive: 7.96%
CCN(c1ccccc1)S(=O)(=O)c1ccc(C(=O)Nc2nnc(C3CC3)o2)cc1	inconclusive: 2.59 µM [cytotoxic, partial curve]	

Structure (SMILES)	Potency	activity, negative = less viability
CC(=O)c1ccc(NC(=O)Nc2cccc(Cl)c2)cc1	inconclusive: 32.6 µM [cytotoxic, single point]	
CNCc1ccccc1OCc1ccccc1F		inactive: -0.098%
COc1ccc(OC)c(NC(=O)CN(Cc2ccc(F)cc2)C2CCCCC2)c1	inconclusive: 16.4 µM [cytotoxic, single point]	
Cn1c(CN2CCN(c3ccc(Cl)cc3)CC2)nc2ccccc21	inconclusive: 35.5 µM [cytotoxic, single point]	
Cc1ccccc1OCCCN1C(=O)C(=O)c2cccc(C)c21	inconclusive: 29.1 µM [cytotoxic, single point]	
COc1cccc2c1C(=O)C=C(C)C2=O	active: 18.4 µM	
O=C(COc1ccc(-n2cnnn2)cc1)Nc1cc(Cl)cc(Cl)c1	inconclusive: 25.9 µM [cytotoxic, single point]	
Cc1cc2occ(CC(=O)NC3=NCCS3)c2cc1C(C)C	inconclusive: 28.2 µM [cytotoxic, single point]	
Cc1csc(NC(=O)c2sc3nc(-c4cccs4)ccc3c2N)n1		inactive: -9.27%
Cc1cccc(CCN2C(Nc3ccccc3)=NC[C@@H]2CC(C)C)c1	inconclusive: 18.4 µM [cytotoxic, partial curve]	
CC(C)(CC(=O)O)CC(=O)N1CCCN(c2nc3ccc(Cl)cc3s2)CC1		inactive: -9.43%
CCOc1ccc(S(=O)(=O)N(CC)CC(=O)NCc2ccncc2)cc1C		inactive: 13%
CC(C)(C)c1ccc(C(=O)N2CCC2(C)C(=O)Nc2cccc(C#N)c2)cc1 (stereo not drawn)	inconclusive: 29.1 µM [cytotoxic, single point]	
Cc1ccnc(NC(=O)c2ccc(OCC3CCCO3)cc2)c1 (stereo not drawn)	inconclusive: 16.4 µM [cytotoxic, partial curve]	
CCCCn1c(N)c(S(=O)(=O)c2ccc(C)cc2)c2nc3ccccc3nc21	inconclusive: 23.1 µM [cytotoxic, single point]	
O=C1CSC(=S)N1Nc1ccccc1	inconclusive: 3.66 µM [cytotoxic, single point]	
Cn1cccc1C(=O)NC1CCCCCC1		inactive: -4.68%
Cc1c(Cl)cccc1NC(=S)NCCC(c1ccccc1)c1ccccc1	inconclusive: 29.1 µM [cytotoxic, single point]	
Cc1nnc(N/N=C/c2ccc(-c3ccc(Br)cc3)o2)n1N	inconclusive: 5.8 µM [cytotoxic, full curve]	
Cc1ccc(C(=O)C2C(c3ccc(-c4ccccc4[N+](=O)[O-])o3)NC(=O)NC2(O)C(F)(F)F)cc1 (stereo not drawn)		inactive: -20.4%
NC(=O)c1c(NC(=O)CSc2nnc(-c3ccco3)n2-c2ccccc2)sc2c1CCC2	inconclusive: 23.1 µM [cytotoxic, partial curve]	
O=C(/C=C/Nc1ccccc1Br)c1ccccn1	inconclusive: 10.3 µM [cytotoxic, partial curve]	
O=C(NCCN1CCCCC1)c1ccc(Oc2cc(Cl)cc(Cl)c2)o1	inconclusive: 18.4 µM [cytotoxic, partial curve]	
